We go through 84 variants from the RNAGym collection of RNA variant scans (doi:10.1093/nar/gkz1192).

The source gives no read counts; variants with many changes may rest on few reads.

B1: CPEB3 Ribozyme (parent)
chain: UAACAGGGGGCCACAGCAGAAGCGUUCACGUCGCAGCCCCUGUCAGAUUCUGGUGAAUCUGCGAAUUCUGCUGUAUAUCUC

The variants in the series derive from B1. The series can be described thus: self-cleavage, relative activity (ratio to wild type); higher = more cleavage; in vitro, sequencing. The method, boiled down:
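After error-prone PCR and barcoding, CPEB3 ribozyme mutant libraries were transcribed with T7 RNA polymerase at 37°C for 5 hours, then given 15 min with DNase I before an EDTA stop, and they cleaved during both steps. Reverse transcription with template switching preceded Illumina sequencing. Relative activity divides a variant's cleaved/total read fraction by the unmutated ribozyme's. At least 5 reads were required per variant, and three batches were averaged.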
As for A18U C40U U49G, the self-cleavage is 0.11. Under G19A A21G A28U U58C U74A stands 0.21; under A18U A64G A77G, 0.26. Under A18U A28G U43C U48C C50A stands 0.17; under A18U A57G U69C, 0.43; under A20C U54C U60A, 0.12. The result for A18G U31A C39A G55A U60C U78C reads 0.07; that for A18U U26C U43A, 0.3; that for A18G U41A G46A U60C A77G, 0.14. In the case of G19U A21G U43A, the self-cleavage came out at 0.29. As to A20C U54A A56G A64G, the self-cleavage amounted to 0.33.

With A18G U51G G55A, the self-cleavage came out at 0.3. Under G19U U67C U78C stands 0.08; under A18U A20G U25C A45G U67C G73U, 0.03. The result for A20C A64U U78C reads 0.33.

Take A18U A64G U74A: the self-cleavage is 0.32. Regarding A18G U51A U60A, the self-cleavage came out at 0.07. Under G19U A28U A45G U54C U78G stands 0.14; under G19U U31C A56U, 0.35. Under G19C U26A A28U U41C U69C U72A stands 0.05; under G19A A35G A64G U69C U76G, 0.17; under A18G U26A A28G U41A A45U U49A U66C, 0.14. Under G19C U51C A56G U66C stands 0.13; under A18U U25C U31C U49C U58C U66G U74C, 0.05. With A18U A20U C32U A56G, the self-cleavage was 0.14. The result for A18U U66C A75C reads 0.29.

Consider A20G A28G A35G C39A A57G, for which the self-cleavage came out at 0.24. The result for G19U U41G A65G U67A A75U reads 0.19. For the variant G19C G30U A64G U76C, the self-cleavage turned out to be 0.18. For A18U A20U U26C A35G U69C, the self-cleavage was found to be 0.08.

Consider A20G A28G A75U, for which the self-cleavage amounted to 0.41. Regarding A18G U26C U31C, the self-cleavage amounted to 0.12.

As for A18G U41C U60C, the self-cleavage stood at 0.21.

As to G19U A45C G46U, the self-cleavage worked out at 0.18. Under A18U U26C U41C stands 0.2; under A18U U25G A47G A57U A65C, 0.16. The result for A20G A28G A35G U43A A57G reads 0.98; that for A18G U51A A56G, 0.25.

For the variant A18U U25C A47U U60C A64G A77C, the self-cleavage was determined as 0.06. Under A18G U26A C34U U43C A64U U78C stands 0.05; under A18U U51C U60C, 0.31; under A18G U26C G36A U43C A57G U58C U66C, 0.04.

In the case of G19A U49C C59A, the self-cleavage was found to be 0.14.

In the case of A18U G61A U69A, the self-cleavage stood at 0.95.

Turning to G19U G22U U26A U80C, the self-cleavage worked out at 0.07. Under G19C A20G G30U A64G U66C U69A stands 0.06; under A18U A20G A45C U60C U78C, 0.07. Consider A20C U26C A56G U60A U69C, for which the self-cleavage came out at 0.08.

Consider G19A U25C A28G C34A A45G U72A, for which the self-cleavage was found to be 0.13. The result for A18U A35G C37A G61A U80C reads 0.3. As for A18U A45G G61A A75G, the self-cleavage came out at 0.11. Under A18U C59A C62U A65G stands 0.15. As to A18U G42A C81U, the self-cleavage turned out to be 0.36.

On to G19C C37U A57G C62U, for which the self-cleavage was 0.1. Under A18G U26C A35G U41C A64G U66C stands 0.15; under G19C A21G C29U A57G U67A, 0.05; under A18U A45U U58A, 0.14. Take A18G U43G U54A: the self-cleavage came out at 0.27. Regarding A20C U43C U80G, the self-cleavage is 0.24. Take A18U A21U U26C U78A: the self-cleavage stood at 0.25. For A18U G30U U67A, the self-cleavage was 0.09. The result for A18G U41A U48C U78C reads 0.18. Under G19A U26C U31C C37G U69A stands 0.06; under A18G U41A U49C U51C U54C U60A U72C, 0.23. The result for A18U A35G A47G C62G reads 0.2; that for A18G U66G A75G, 0.2; that for A20C C32U U48C A64G, 0.05. Regarding A18U U31C U66C U69C, the self-cleavage worked out at 0.09.

Consider A18G U31C U60C, for which the self-cleavage is 0.05.

As for A18G U31A A45G, the self-cleavage was determined as 0.39. Under A18G U31C C40A A45C A56U stands 0.11. As for A18G U60C A65G, the self-cleavage was 0.27.

Turning to G19C U69C U72C, the self-cleavage turned out to be 0.15. For the variant G19U A28G A57G A77G, the self-cleavage was determined as 0.13. With A18U G19U U26A C50U, the self-cleavage turned out to be 0.05. Under A18U A20G A21G U49C stands 0.39. Under A18U U54A A56G stands 0.29. Under A18U U51C U60C U78C stands 0.23. In the case of A18G U41C U51A, the self-cleavage amounted to 0.59.

With A18G U72A C81U, the self-cleavage worked out at 0.32. For the variant A20G A21G U26C A35U, the self-cleavage was found to be 0.45. Under G19C A47G A64G U74A stands 0.09; under G19U A35G U54C U78C, 0.34; under A18U A28G U66A, 0.14.
